According to PubChem BioAssay AID463173 (ICCB-Longwood Screening Facility, Harvard Medical School, 2010):
Screen size: about 52,000 compounds; about 4,300 (8.3%) were called active. No stated cut-off is given here; in the data, active means survival mostly below about 52% (no sharp cut-off); inactive means mostly above about 56%. The list shows a part of the results.

Test system: DeltatarO mutant
Assay: growth inhibition of S. aureus wild type versus tarO mutant, primary screen, teichoic acid synthesis inhibitors, RN4220, OD600 (AID 463173)
Details: OD600, 18 h, active compounds read low, screened at 18.75 µg/mL (by protocol)

Structure (SMILES)	survival
CSc1ncc(Cl)c(C(=O)N(Cc2ccc(C(C)C)cc2)C2CCS(=O)(=O)C2)n1 (stereo not drawn)	inactive: 70%
Cc1ccccc1Cn1c(SCc2ccc(C(=O)NCCc3ccccc3)cc2)nc2ccncc21	inactive: 82%
Cc1cc(C)n(C(C)CC(=O)Nc2ccc(C)c(F)c2)n1 (stereo not drawn)	inactive: 87%
CCn1c(=O)c2sccc2n2c(CCCC(=O)Nc3ccc(OC)c(OC)c3)nnc12	inactive: 91%
COc1ccc(C(=O)Nc2nc3n(n2)C(c2ccc(F)cc2)C=C(c2ccc(Cl)cc2)N3)cc1 (stereo not drawn)	inactive: 54%
O=C(Nc1ccccc1)C1CCCN1C(=O)Nc1ccc(F)cc1 (stereo not drawn)	inactive: 100%
CCOC(=O)c1ccc(NC(=O)c2cc3c([nH]c2=O)CC(c2ccccc2)CC3=O)cc1 (stereo not drawn)	inactive: 95%
CC(c1ccccc1F)n1cc(C(=O)NCC2CCCO2)nn1 (stereo not drawn)	inactive: 89%
Cc1c(C(=O)N(C)C)sc2c1c(=O)n(-c1ccc(Cl)c(Cl)c1)c(=O)n2CC(=O)Nc1ccc(Br)cc1F	inactive: 144%
COc1cccc(C(=O)N2CCC(N3CCN(Cc4ccc(F)cc4)C(=O)C3=O)CC2)c1	inactive: 87%
COC(=O)CSc1nnc(COc2ccc(C(C)C)cc2)o1	inactive: 96%
Cc1ccc(Cl)cc1N1CCN(C(=O)c2c(C)oc3ncnc(N4CCOCC4)c23)CC1	inactive: 89%
O=C(NC1CCCC1)C(c1ccccc1)N(CC1CCCO1)C(=O)Cn1nnc2ccccc21 (stereo not drawn)	inactive: 89%
COC(=O)c1cccc(Nc2c(-c3cc(Br)ccc3O)nc3nc[nH]n23)c1	inactive: 98%
CCOc1ccccc1NC(=O)c1c(NCc2ccc(OC)c(OC)c2OC)sc2c1CCC(C)C2 (stereo not drawn)	inactive: 107%
CCc1nnc(SCc2nc(-c3ccccc3F)oc2C)c2cc3sccc3n12	inactive: 65%
COc1ccc(N(CC(O)CN2CCCC2)S(=O)(=O)c2ccccc2)cc1 (stereo not drawn)	inactive: 76%
O=C(C1COc2ccccc2O1)N(Cc1cccnc1)c1nc2c(F)cc(F)cc2s1 (stereo not drawn)	inactive: 70%
Cc1ccc(C(=O)Nc2nnc(SCc3cc(=O)c4c(C)ccc(C)c4[nH]3)s2)cc1	inactive: 86%
O=C(Nc1ccc2nn(-c3ccc(F)cc3)nc2c1)c1cccc2c(Cl)cccc12	inactive: 139%
COc1ccc(OCc2nnc(SCC(=O)O)n2N)cc1	inactive: 81%
Cc1ccc(Cl)cc1-n1c(=O)cc(N2CCN(c3ccccc3)CC2)[nH]c1=O	inactive: 92%

Structure (SMILES)	survival
Cc1cc2n(n1)CCCN2C(=O)Nc1ccccc1F	inactive: 67%
Cc1cccc(-c2noc(-c3ccc(NC4CCCC4)c([N+](=O)[O-])c3)n2)c1	inactive: 81%
Cc1ccc(OCC(=O)Nc2cccc(C(=O)OCc3cc(=O)n4cc(C)sc4n3)c2)cc1	inactive: 94%
O=C(CC1N=C2c3ccccc3N=C(SCc3cccc(Cl)c3)N2C1=O)NC1CCCCC1 (stereo not drawn)	inactive: 84%
COc1ccc(NC(=O)CSc2nnc(-c3nnn(-c4ccc(F)cc4)c3C)o2)cc1	inactive: 88%
COc1cc(OC)c(NC(=O)c2nc(-c3ccncc3)no2)cc1Cl	inactive: 109%
CCCCCNC(=O)C1CCC(Cn2c(=O)c3sccc3n(CC(=O)N3CCCC3)c2=O)CC1 (stereo not drawn)	inactive: 84%
COc1cc(OC)c(NC(=O)NCc2ccc3c(c2)CCN3C(C)=O)cc1Cl	inactive: 124%
c1ccc(N2CCN(c3ncnc4[nH]ncc34)CC2)cc1	inactive: 78%
O=c1c2cc3c(cc2n(Cc2cccc(F)c2)c(=O)n1Cc1nc(-c2ccccc2)no1)OCO3	inactive: 84%
O=C1CC(CSc2nnc(-c3ccc(Cl)cc3)n2-c2ccccc2)=NN1	inactive: 110%
CCc1ccccc1NC(=O)CC(C)n1nc(C)cc1C (stereo not drawn)	inactive: 95%
OC1CCN(C(=S)Nc2ccccc2)CC1	inactive: 101%
Cc1ccc(N2C(=O)c3n[nH]c(C)c3C2c2ccc(C(C)C)cc2)cc1 (stereo not drawn)	active: 39%
COc1cccc(C(=O)Nc2ccccc2-c2nc(-c3ccc(C)cc3)no2)c1	active: 48%
COCCNC(=O)CN1CCC(NC(=O)c2ccco2)CC1	inactive: 90%
CCOC(=O)c1c(S(=O)(=O)N2CCN(c3ccccc3OC)CC2)c(C)n(C)c1C	inactive: 97%
Cc1ccc(C(=O)NCc2nnnn2-c2ccc(C)c(C)c2)cc1	inactive: 115%
CC(C)OC(=O)CSc1nnc(CNc2ccc(F)cc2)n1C1CCCCC1	inactive: 83%
Cc1ccc(-c2nnc(Nc3ccc(Br)cc3)c3ccccc23)cc1S(=O)(=O)NCc1nc2ccccc2[nH]1	inactive: 67%
CCOC(=O)c1ccc(NC(=O)CSc2nnc(CNc3ccc(C)cc3C)n2Cc2ccco2)cc1	inactive: 68%
Cc1ccc(Cl)cc1NC(=O)c1cccc(NC(=O)N2CCSc3ncccc32)c1	inactive: 115%

Structure (SMILES)	survival
CCOc1ccc(NC(=O)C2CCCN(c3nnc(-n4c(C)ccc4C)s3)C2)cc1 (stereo not drawn)	inactive: 71%
CCC(C(=O)OC(C)C)n1cnc2sc3c(c2c1=O)CCC(C)C3 (stereo not drawn)	inactive: 93%
CCc1ccc(NCc2cc3ccc(OC)cc3n(CC(=O)Nc3cccc(Cl)c3C)c2=O)cc1	inactive: 76%
COc1ccc(S(=O)(=O)N(CCc2ccccc2)CC(=O)NCc2ccccc2)cc1OC	inactive: 62%
COCCN1C(=O)c2[nH]nc(-c3c(C)cc(C)cc3O)c2C1c1cccc(O)c1 (stereo not drawn)	inactive: 57%
Cc1c(NC(=O)CN2C(=O)c3cccc4cccc2c34)c(=O)n(-c2ccccc2)n1C	inactive: 98%
CC(C)Cn1c(N2CCN(C(=O)Nc3ccc(Cl)cc3)CC2)nc2ccccc21	inactive: 102%
CC(=O)c1ccc(NC(=O)C2CCC(CNS(=O)(=O)c3cccc4nsnc34)CC2)cc1 (stereo not drawn)	inactive: 110%
Cc1cccn2c(=O)c(C(=O)NCCc3ccc(Cl)cc3)cnc12	inactive: 83%
CC(C)(C)OC(=O)N1CCC(c2c(C(=O)N3CCN(C(=O)c4ccco4)CC3)cnn2-c2ccc(Cl)cc2)CC1	inactive: 83%
CCc1ccccc1N1C(=O)N(Cc2cccc(Cl)c2)c2ccccc2S1(=O)=O	inactive: 83%
Cc1ccc(Cn2c(SCc3ccc(C(=O)NCCc4ccccc4)cc3)nc3ccncc32)cc1	inactive: 77%
Cc1nc(-c2ccc(C)c(N3CCN(C(=O)Nc4ccc(Br)cc4)CC3)c2)no1	active: 17%
CCn1cc(S(=O)(=O)c2cccc(C)c2)c(=O)c2cc(F)c(N3CCCCC3C)cc21 (stereo not drawn)	inactive: 83%
COc1ccc(-n2c(=O)c3sc4ccccc4c3n(CC(=O)N3CCCC3)c2=O)cc1	inactive: 96%
CS(=O)(=O)c1nc(-c2ccc(Br)cc2)n[nH]1	inactive: 92%
COc1ccc(-c2cn3c(n2)sc2cc(C(=O)Nc4ccccc4F)ccc23)cc1	inactive: 44%
COc1ccc(-n2c(SCC(=O)N3CCCc4ccccc43)nc3c([nH]c4ccccc43)c2=O)cc1	inactive: 101%
Cc1ccc(C)n1-c1ccc(NC(=O)c2ccccc2)cc1	inactive: 79%
c1coc(-c2nc3ccccn3c2Nc2ccc3c(c2)OCCO3)c1	active: 53%
CCOc1ccc(NC(=O)CCS(=O)(=O)c2ccc3nc(C)sc3c2)cc1	inactive: 55%
COc1cc(Cl)c(C)cc1NC(=O)c1cnn(-c2ccc(C)cc2)c1-n1cccc1	inactive: 57%

Structure (SMILES)	survival
O=C(O)CCCC(=O)N1CCc2cc(S(=O)(=O)NCc3ccccc3)ccc21	inactive: 111%
CCOC(=O)c1[nH]c2c(c1Cc1ccccc1)C(=O)CC(c1ccc(OC)cc1)C2 (stereo not drawn)	inactive: 76%
CCSc1nc2c([nH]c3ccccc32)c(=O)n1-c1ccc(OC)cc1	active: 46%
CCC1CCCCN1C(=O)c1sc2nc(C)cc(C)c2c1N (stereo not drawn)	inactive: 87%
CCOC(=O)c1ccc(NC(=O)c2cnc(N3CCCC3)nc2C)cc1	inactive: 94%
CC1CCCN(c2ncnc3c2nc2n3CCCCC2)C1 (stereo not drawn)	inactive: 94%
CN(C)c1ccc(CNc2nc(-c3ccco3)nn2S(C)(=O)=O)cc1	inactive: 64%
Cc1ccccc1Cn1c(=O)n(CCCCC(=O)NCCc2ccccc2)c(=O)c2ccccc21	inactive: 83%
CCc1ccc(NC(=O)CSC2=Nc3ccccc3C3=NC(CC(=O)NCc4ccc5c(c4)OCO5)C(=O)N23)cc1 (stereo not drawn)	inactive: 107%
CCc1ccc2occ(CC(=O)Nc3c(C(=O)Nc4ccc(Cl)cc4)oc4ccccc34)c2c1	inactive: 73%
CN(C)CCNC(=O)c1ccc2nc(CCc3ccccc3)oc2c1	inactive: 71%
Cc1ccc(CNC(=O)C(=O)NCC(c2cccs2)S(=O)(=O)c2cccs2)cc1 (stereo not drawn)	inactive: 98%
CC(C)(C)OC(=O)N1CCC(c2c(C(=O)Nc3ccc4c(c3)OCO4)cnn2-c2ccc(F)cc2F)CC1	inactive: 84%
COc1ccc(NC(=O)/C(C#N)=C/c2ccc(C)o2)cc1	inactive: 77%
CCOC(=O)CSC1=Nc2ccccc2C2=NC(CCC(=O)NCc3ccccc3)C(=O)N12 (stereo not drawn)	inactive: 98%
COc1ccc(NC(=O)CN(c2cccc(C)c2C)S(=O)(=O)c2ccccc2)cc1OC	inactive: 61%
Cc1cc2c(cc1C)C(c1cccc(OC(C)C)c1)CC(=O)N2 (stereo not drawn)	inactive: 77%
CCCCN(C)CCCNC(=O)Cn1nc(CC)n2c(cc3sc(C)cc32)c1=O	inactive: 90%
COc1ccc(C(=O)N2CCN(C(=O)COc3ccc(Br)cc3)CC2)cc1OC	inactive: 60%
CCc1ccc2[nH]c3nc(SCC(=O)OC(C)C)nnc3c2c1	inactive: 108%
COCCn1c(SCC(=O)c2ccccc2)nc2cc(C(=O)NC3CCCC3)ccc2c1=O	inactive: 87%
CCn1c(SCC(=O)Nc2nc(C)cs2)nnc1C(C)Oc1ccccc1 (stereo not drawn)	inactive: 85%
